The other results are listed elsewhere or left out. Construct or isoform of the protein are uncertain.
Biological target: GST-SBP-ILF3 (Homo sapiens) (UniProt Q12906)
Test: targeted RNA Bind-n-Seq
Details: RBNS binding buffer: 25 mM Tris pH 7.5, 150 mM KCl, 3 mM MgCl2, 0.1% Tween, 0.5 mg/mL BSA, 1 mM DTT; 27 nM protein, 750 pM RNA pool; temperature not stated; high values mean tight binding; sequences stand for … in GGGUAAAAGCGAGGUGAA…CGGGACAAGUAUUAUGGG

Sequence	binding signal (log2 fold change)
UUUUUUUUUUGAGAUGGAGACUAUCUCCUA [tttttgagapaired]	0.31
GUUGGUGGUGUUGGAGCCUAACACCACCAG [gtspaired]	-0.558
UUUUUUUUUUGAGAACGAUGCGUUCUCCUA [tttttgagapaired]	-0.00569
UUUUUUUUUUGAGAUGGAAGCCAUUUCCAG [tttttgagapaired]	0.28
GUGUGUUGUGUUGGCACCUAACACAGCACA [gtspaired]	-0.539
GGUUGGUGUGUUGGAGCCUAACACAUCAGC [gtspaired]	-0.813
GGUGUUGGUGUUGGUCCCUAACACCGAUAC [gtspaired]	-0.441
UUUUUUUUUUGAGACCGGGACGGUUUCCUG [tttttgagapaired]	0.751
UUUUUUUUUUGAGAACGACGCGUUCUCCGG [tttttgagapaired]	0.25
GUUGUGUGUGUUGGCGCCUAACACACACGA [gtspaired]	-0.408
GUGUGUGGUGUUGGCCUCUAACACCACGCG [gtspaired]	-0.758
GGUUGUGGUGUUGGUCCCUAACACCAUAAC [gtspaired]	0.044
GUGUGGUGUGUUGGCACCUAACACAUCACA [gtspaired]	-0.596
GUGGUUGGUGUUGGACCCUAACACCAGCCA [gtspaired]	-0.442
UUUUUUUUUUGAGACUGGACCAGUCUCCAG [tttttgagapaired]	0.448
UUUUUUUUUUGAGAGCGGUCCGCUCUCCUA [tttttgagapaired]	0.504
UUUUUUUUUUGAGAUGGUGACCAUCUCCAG [tttttgagapaired]	0.429
UUUUUUUUUUGAGAUGGCGUCCAUCUCCUA [tttttgagapaired]	0.482
UUUUUUUUUUGAGACCGAGUCGGUCUCCGG [tttttgagapaired]	0.343
UUUUUUUUUUGAGAGGGAUCCCCUCUCCGG [tttttgagapaired]	0.336
UUUUUUUUUUGAGACUGAGUCAGUCUUCUA [tttttgagapaired]	0.26
GUGUUGUGUGUUGGUAUCUAACACACAGCG [gtspaired]	-0.668

Sequence	binding signal (log2 fold change)
UUUUUUUUUUGAGACUGUGGCAGUCUCCAG [tttttgagapaired]	0.306
GGUGGUUGUGUUGGCCUCUAACACAGCUAC [gtspaired]	-0.766
UUUUUUUUUUGAGACGGGGGCUGUCUCCUA [tttttgagapaired]	0.975
UUUUUUUUUUGAGAGGGACGCCCUCUCCAG [tttttgagapaired]	0.662
UUUUUUUUUUGAGAUGGAAACCAUCUCCAG [tttttgagapaired]	0.115
UUCUCUUCUCCUCCAUAGGAGGGGGAGGGA [ctspaired]	-0.391
UUUUUUUUUUGAGACGGAUUCUGUCUCCUG [tttttgagapaired]	0.134
UUUUUUUUUUGAGACGGAAACUGUCUCCUG [tttttgagapaired]	0.891
UUUUUUUUUUGAGACGGUUCCCGUCUCCAG [tttttgagapaired]	0.823
UUUUUUUUUUGAGACGGGGUCUGUCUCCAG [tttttgagapaired]	0.874
UUUUUUUUUUGAGACUGAUCCAGUCUCCUG [tttttgagapaired]	0.405
UUUUUUUUUUGAGAGCGAGACGUUCUCCAG [tttttgagapaired]	0.228
GUGUGUGGUGUUGGCUUCUAACACCGCACG [gtspaired]	-0.708
GUGUGGUGUGUUGGCGCCUAACACACUAUA [gtspaired]	-0.503
UUUUUUUUUUGAGAGUGUACCACUCUCCAG [tttttgagapaired]	0.191
GUGUUGUGUGUUGGCUUCUAACACACAGCA [gtspaired]	-0.694
UUUUUUUUUUGAGAGUGUAGCAUUCUCCUA [tttttgagapaired]	0.141
UUUUUUUUUUGAGAGGGUAGCCCUUUCCAG [tttttgagapaired]	0.38
UUUUUUUUUUGAGAACGGCGCGUUCUCCAG [tttttgagapaired]	0.439
UUUUUUUUUUGAGACGGACACCGUCUUCUA [tttttgagapaired]	-0.09
GUGUUGUGUGUUGGUCCCUAACACACAGCA [gtspaired]	-0.471
GUUGUGUGUGUUGGCACCUAACACACGCGA [gtspaired]	-0.62

Sequence	binding signal (log2 fold change)
GUUGGUGGUGUUGGAUUCUAACACCAUCAA [gtspaired]	-0.442
UUUUUUUUUUGAGACUGCGACAGUCUUCUG [tttttgagapaired]	0.625
GGUGUGUGUGUUGGUCCCUAACACACGCGC [gtspaired]	-0.421
UUUUUUUUUUGAGACGGAAACUGUCUCCAG [tttttgagapaired]	0.772
UUUUUUUUUUGAGACUGGAGCAGUUUCCUA [tttttgagapaired]	0.59
GUGGUGUGUGUUGGUAUCUAACACAUACCG [gtspaired]	-0.218
UUUUUUUUUUGAGACCGCUGCGGUCUCCUA [tttttgagapaired]	0.484
GUGUGGUGUGUUGGCGUCUAACACACCAUA [gtspaired]	-0.149
UUUUUUUUUUGAGACUGGAUCAGUCUCCAG [tttttgagapaired]	0.0778
UUUUUUUUUUGAGAUGGGAACCAUCUCCUG [tttttgagapaired]	0.41
UUUUUUUUUUGAGAGGGGAUCCCUCUCCGG [tttttgagapaired]	0.277
UUUUUUUUUUGAGACGGAUUCUGUCUUCUA [tttttgagapaired]	-0.242
UUUUUUUUUUGAGACGGCUACCGUUUCCAG [tttttgagapaired]	0.642
UUUUUUUUUUGAGAUGGGGUCCAUUUCCGG [tttttgagapaired]	0.751
UUUUUUUUUUGAGAGGGGGUCCCUCUCCAG [tttttgagapaired]	0.814
UUUUUUUUUUGAGAUGGACGCUAUCUCCGG [tttttgagapaired]	0.568
UUUUUUUUUUGAGAACGGAACGUUCUCCGG [tttttgagapaired]	0.0282
UUUUUUUUUUGAGAUGGUUGCCAUCUCCUA [tttttgagapaired]	0.327
UUUUUUUUUUGAGAACGAGGCGUUCUCCAG [tttttgagapaired]	0.127
UUUUUUUUUUGAGAGCGUAUCGUUCUCCUA [tttttgagapaired]	0.117
UUUUUUUUUUGAGACUGAACCAGUCUCCUA [tttttgagapaired]	0.000607

Source: publication PMC5892938
